# Measured values published in the supplement of paper PMC9433436.
# ± gives the standard deviation of the averaged measurements. In all, about 4,100 sequences were measured (“relative kcat/Km (krel) vs genomic leader AAAGAU”: median about 1.7, highest 2% from about 6.5 on). The entries are a selection whose mix differs from that of the whole data set.
# Target: T1, E. coli RNase P holoenzyme (M1 P RNA + rnpA protein) (UniProt P0A7Y8)
# T1 sequence: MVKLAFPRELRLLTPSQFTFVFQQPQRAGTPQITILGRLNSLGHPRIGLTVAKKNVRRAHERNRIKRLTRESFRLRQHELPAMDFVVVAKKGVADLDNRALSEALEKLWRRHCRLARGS
# Assay: relative kcat/Km (krel) vs genomic leader AAAGAU (relative (reference leader = 1)); higher = faster RNase P cleavage
# Method: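 HTS-Kin: a pool of ptRNA-Met (21C construct) with all 4096 combinations of 5' leader nucleotides N(-6) to N(-1) was processed in vitro by E. coli RNase P (P RNA + rnpA/C5 protein) under multiple-turnover conditions at 37 C, pH 8, 17.5 mM MgCl2. Residual substrate was Illumina-sequenced at several fractions reacted, and relative kcat/Km (krel) was computed by internal competition kinetics, calibrated to the genomic leader (AAAGAU = 1). The listed hexamer is the varied N(-6)..N(-1) leader (DNA letters), and it sits between a fixed 5' stem-loop flank (GCAUGCACGAAAGUGCGUGCUAUGAA) and the mature tRNA-Met starting GGCUACGUAGCUCAGUUGG. Two technical replicates are averaged.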
# [1] = fraction of substrate reacted: ~9-10% (9.79% repeat 1, 9.1% repeat 2)
# [2] = fraction of substrate reacted: ~13-16% (15.68% repeat 1, 13.17% repeat 2)
# [3] = fraction of substrate reacted: ~26-29% (28.66% repeat 1, 26.4% repeat 2)
Sequence,relative kcat/Km [1],relative kcat/Km [2],relative kcat/Km [3]
CAACGA,1.26 ± 0.31,1.57 ± 0.31,2.61 ± 0.73
GCGATC,1.7 ± 1.3,1.62 ± 0.72,1.7 ± 0.24
GAGAGC,1.56 ± 0.32,1.76 ± 0.13,2.08 ± 0.19
GGAACA,1.16 ± 0.49,1.39 ± 0.3,1.53 ± 0.0065
TCTCGC,2.86 ± 0.37,3.63 ± 0.6,4.81 ± 1.6
CGGCTT,0.767 ± 0.043,0.707 ± 0.2,0.573 ± 0.28
GTTACT,1.81 ± 0.53,2.06 ± 0.25,3.21 ± 1.5
CTCGCG,2.22 ± 1.4,1.19 ± 1.2,3.19 ± 1
GCCAGT,,,1.07 ± 0.27
CGCGAT,1.45 ± 0.44,1.95 ± 0.54,2.61 ± 0.9
AAATCC,2.19 ± 1.6,1.69 ± 0.46,1.73 ± 0.1
AAATGC,2.72 ± 0.1,2.57 ± 0.88,2.84 ± 1.1
TTTGAC,2.96 ± 1.2,3.63 ± 0.8,5.51 ± 2.6
CCCAAG,1.92 ± 1.8,1.745 ± 0.017,3.56 ± 0.87
ACGAAT,1.52 ± 0.086,2.48 ± 0.9,3.45 ± 1.6
TACGTA,2.14 ± 0.53,2.47 ± 0.38,3.67 ± 1.2
GCCCTA,2.3 ± 0.98,1.641 ± 0.0073,3.56 ± 0.7
GACTGA,2.61 ± 1.4,3.21 ± 0.64,5.15 ± 1.4
ATACGT,0.722 ± 0.057,1.92 ± 1.6,
CTAAGC,1.65 ± 0.3,2.19 ± 0.16,2.47 ± 0.38
AAAGTT,,0.945 ± 0.91,0.442 ± 0.33
TACCCT,2.55 ± 1.1,2.63 ± 0.06,3.63 ± 1.3
ATCTCC,3.67 ± 0.85,4.83 ± 1.4,6.39 ± 2.9
GTAGCC,1.99 ± 0.12,1.48 ± 0.66,2.13 ± 0.51
ATGACC,1.45 ± 0.43,1.53 ± 0.06,1.7 ± 0.27
CATCTA,2.59 ± 1.4,1.96 ± 0.57,2.74 ± 0.76

Sequence,relative kcat/Km [1],relative kcat/Km [2],relative kcat/Km [3]
AATCCC,2.14 ± 1.8,,1.33 ± 0.76
TTAGTA,1.41 ± 0.75,1.51 ± 0.63,2.24 ± 0.85
CACGCG,,0.687 ± 0.39,2.17 ± 0.21
CCCGAG,1.48 ± 0.82,0.888 ± 0.25,3.16 ± 0.072
TTGTGA,1.2 ± 0.026,1.57 ± 0.66,2.36 ± 0.66
TCCTAT,4.03 ± 0.47,6.02 ± 0.85,9.38 ± 4.8
ACCGGA,,,0.635 ± 0.44
CAAAGT,,1.05 ± 0.97,1.45 ± 1.4
TATTTT,2.99 ± 0.97,3.75 ± 0.39,5.41 ± 2.6
CAGAAG,,,1.88 ± 1
CCAATC,1.21 ± 0.17,,1.87 ± 0.68
TATCTT,2.42 ± 0.64,3.1 ± 0.32,4.34 ± 2.3
GGACTG,,,1.1 ± 0.086
CTTTCG,1.29 ± 1.1,0.933 ± 0.53,1.5 ± 0.051
CAAAGC,1.07 ± 0.26,1.12 ± 1.1,1.94 ± 1.2
GTTTTG,,0.351 ± 0.17,1.74 ± 0.18
GCACGC,,,1.29 ± 1.2
CACGTG,,,1.163 ± 0.0097
ACCTAC,3.44 ± 1.2,4.53 ± 0.77,5.77 ± 2.1
CATGGG,,,0.554 ± 0.53
ATTTGA,3.01 ± 0.59,4.02 ± 0.65,5.74 ± 2.1
ATGGCA,,1.34 ± 1.2,1.01 ± 0.3
TACACC,2.91 ± 0.42,4.39 ± 1.3,5.78 ± 2.5
CCACGA,2.55 ± 1.9,1.62 ± 0.19,2.52 ± 0.18
GGGTTC,0.445 ± 0.035,0.916 ± 0.37,0.82 ± 0.16
CCATCT,2.12 ± 1.5,1.53 ± 1.1,2.64 ± 0.42

Sequence,relative kcat/Km [1],relative kcat/Km [2],relative kcat/Km [3]
ATCCGT,,,2.3 ± 2.1
GGCTCC,2.56 ± 0.54,1.96 ± 0.23,2.25 ± 0.7
TCGGTG,0.643 ± 0.43,,0.367 ± 0.27
GTTTTC,2.55 ± 1.7,2.53 ± 0.4,3.41 ± 0.9
TAAATT,1.84 ± 0.54,2.08 ± 0.067,2.61 ± 1.3
CTCCCC,2.43 ± 0.053,3.34 ± 1,4.73 ± 2.2
ACGCAT,1.58 ± 0.85,2.23 ± 0.052,3.39 ± 1.3
CACATA,3.54 ± 0.72,4.2 ± 0.97,5.34 ± 2.4
GTCTGG,,0.567 ± 0.54,0.916 ± 0.067
CGGGGT,,,1.32 ± 0.86
CCTAAA,2.53 ± 1.5,2.31 ± 0.051,3.14 ± 0.82
GTGTGC,0.646 ± 0.36,0.941 ± 0.17,1.05 ± 0.025
ATAATT,1.81 ± 0.87,2.21 ± 0.13,2.94 ± 1.4
AAATCG,,,1.1 ± 0.071
CGTATG,,,1.89 ± 0.14
GGCAGA,2.2 ± 0.83,2.88 ± 0.28,4.78 ± 1.9
AATACC,1.49 ± 0.43,1.431 ± 0.0097,1.56 ± 0.25
GGCCAC,0.682 ± 0.091,1.39 ± 0.35,2.65 ± 0.59
TCAAGC,2.38 ± 0.69,2.23 ± 0.16,2.9 ± 0.75
GTACGC,2 ± 0.098,2.7 ± 0.46,3.72 ± 1.3
ATAGTC,1.61 ± 0.89,1.42 ± 1,1.68 ± 0.75
TGAGTC,0.583 ± 0.29,1.03 ± 0.4,0.524 ± 0.49
GAGTAG,1.04 ± 0.028,1.45 ± 0.37,2.77 ± 1.1
TATCAT,4.22 ± 1.9,5.02 ± 0.57,
CACGTT,1.21 ± 0.087,1.81 ± 0.32,2.27 ± 1.1
TTCTCC,5.23 ± 2.1,6.12 ± 0.67,8.25 ± 3

Sequence,relative kcat/Km [1],relative kcat/Km [2],relative kcat/Km [3]
TTCCAG,2.51 ± 1.5,3.27 ± 0.64,5.49 ± 1.9
AGGTGA,0.639 ± 0.4,0.503 ± 0.19,0.743 ± 0.43
TGAGCT,,0.836 ± 0.54,1.11 ± 0.47
TTGTCA,2.03 ± 0.66,2.26 ± 0.099,3.04 ± 0.6
CAAACT,1.58 ± 0.47,1.26 ± 0.27,1.31 ± 0.11
AATGAG,,,0.677 ± 0.58
AGCTTA,2.46 ± 0.35,2.83 ± 0.28,3.91 ± 1.3
CTCTTT,3.59 ± 0.8,4.98 ± 1.2,
ACACAG,,,1.91 ± 0.12
AACAGG,1.44 ± 0.93,1.06 ± 0.89,1.33 ± 0.069
CACGCC,3.91 ± 1.4,4.47 ± 1,6.13 ± 2.1
CAACTT,1.49 ± 0.5,1.66 ± 0.94,1.88 ± 0.8
AGATTA,2.28 ± 1.7,2.49 ± 0.2,3.21 ± 0.83
GTGAGA,0.981 ± 0.28,1.29 ± 0.24,1.61 ± 0.43
AGAGTA,,,0.77 ± 0.33
CACAAG,1.66 ± 0.94,1.78 ± 0.81,3.72 ± 0.99
AAGTAC,3.18 ± 1.6,3.53 ± 0.57,4.86 ± 1.7
TAATAG,2.22 ± 1.8,2.12 ± 0.069,3.58 ± 0.73
TAGTCC,1.72 ± 0.61,3.25 ± 0.096,3.49 ± 1.5
CTGAAA,1.89 ± 0.12,2.26 ± 0.44,2.95 ± 0.41
GCACGT,,,0.727 ± 0.1
TAAAAC,2.14 ± 0.63,2.65 ± 0.32,3.24 ± 1.3
GAAAAC,1.3 ± 0.74,1.5 ± 0.21,1.79 ± 0.24
CCCGGC,0.71 ± 0.032,1.23 ± 0.72,1.01 ± 0.42
GTAATG,,1.21 ± 0.55,2.35 ± 0.49
TGCGGG,0.417 ± 0.073,0.776 ± 0.59,
